From the supplement of paper PMC12645437, “Orthogonal IMiD-Degron Pairs Induce Selective Protein Degradation in Cells” (ACS Chemical Biology, 2025)
The list shows a part of the results.

biological target: no compound (DMSO); assay: log2 fold change of degron read counts, EGFP-low vs EGFP+ sorted cells; higher = lower degron-EGFP level without compound (poor expression or instability); settings: compound: DMSO control; 18 h
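Also: jurkat cells carrying a lentiviral library of mutant zinc finger degrons fused to EGFP plus mCherry, mCherry+ cells FACS sorted, degron abundance counted by next-generation sequencing.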

Row | Sequence | log2 fold change of degron read counts
1 | FECEICGHFFTQKGNLLRHIKL | -1.63
2 | FWCPICGREFTQKGNLLRHIKL | 0.769
3 | FVCPVCGAIFTQKGNLLRHIKL | 0.717
4 | LMCNQCGFHCTQKGNLLRHIKL | 0.856
5 | FVCNQCGHPFTQKGNLLRHIKL | -0.374
6 | FACPICGRRFTQKGNLLRHIKL | -0.00509
7 | LMCEICGFQCTQKGNLLRHIKL | -0.34
8 | LRCPICGFNCTQKGNLLRHIKL | 1.01
9 | FKCDICGAEFTQKGNLLRHIKL | -2.06
10 | FVCNQCGRRFTQKGNLLRHIKL | -0.368
11 | FYCPQCGAHFTQKGNLLRHIKL | 0.267
12 | FYCEICGHPFTQKGNLLRHIKL | -0.549
13 | LECEICGFPCTQKGNLLRHIKL | -0.00219
14 | FKCPVCGACFTQKGNLLRHIKL | -0.595
15 | FHCEQCGANFTQKGNLLRHIKL | -1.49
16 | FGCEQCGAQFTQKGNLLRHIKL | -2.75
17 | FACEQCGALFTQKGNLLRHIKL | -1.95
18 | FWCPICGHTFTQKGNLLRHIKL | 0.36
19 | FGCEVCGAGFTQKGNLLRHIKL | -0.968
20 | FHCEVCGAWFTQKGNLLRHIKL | -0.607
21 | FVCNQCGHEFTQKGNLLRHIKL | -1.23
22 | FMCSVCGHFFTQKGNLLRHIKL | 0.468
23 | LGCEICGFECTQKGNLLRHIKL | -0.142
24 | LECPICGFWCTQKGNLLRHIKL | 0.806
25 | FFCEVCGAEFTQKGNLLRHIKL | -0.977

Row | Sequence | log2 fold change of degron read counts
26 | FACDICGAFFTQKGNLLRHIKL | -0.372
27 | FICPQCGAWFTQKGNLLRHIKL | 0.912
28 | FNCEICGHDFTQKGNLLRHIKL | -1.41
29 | FACEICGRNFTQKGNLLRHIKL | -2.11
30 | FVCPICGRNFTQKGNLLRHIKL | -0.363
31 | FKCSVCGHSFTQKGNLLRHIKL | -0.389
32 | LACPICGFFCTQKGNLLRHIKL | 1.6
33 | FRCNVCGAEFTQKGNLLRHIKL | -1.03
34 | LACEICGFLCTQKGNLLRHIKL | 0.498
35 | FHCPICGHYFTQKGNLLRHIKL | 0.461
36 | FKCDICGANFTQKGNLLRHIKL | -2.05
37 | FFCNICGAIFTQKGNLLRHIKL | 1.31
38 | FCCDQCGAVFTQKGNLLRHIKL | -1.07
39 | FLCNQCGHTFTQKGNLLRHIKL | -0.379
40 | FSCNQCGAAFTQKGNLLRHIKL | -0.767
41 | FICNQCGAKFTQKGNLLRHIKL | -0.501
42 | FECNICGATFTQKGNLLRHIKL | -1.18
43 | FVCEICGAAFTQKGNLLRHIKL | -1.53
44 | FCCDICGAPFTQKGNLLRHIKL | -1.41
45 | FRCEICGRGFTQKGNLLRHIKL | -1.56
46 | FNCEQCGAVFTQKGNLLRHIKL | -1.4
47 | FGCNICGAAFTQKGNLLRHIKL | -0.55
48 | FVCDICGAKFTQKGNLLRHIKL | -2.68
49 | FICEVCGADFTQKGNLLRHIKL | -1.8
50 | FVCNQCGALFTQKGNLLRHIKL | -0.339
